# Source: article PMC4242493
# Some of the results follow. The list includes weakly bound sequences.
# Molecular target: MaxL homodimer (UniProt P61244)
# Test: universal protein-binding microarray (PBM)
# Settings: PBS-based mixture, 10 nM His-tagged protein dimer, 2% milk, 200 ng/uL BSA, 50 ng/uL salmon testes DNA, 0.02% TX-100; detection with Alexa 488 anti-His …; high values mean tight binding; most listed sequences are background and not binding sites; double strand, one strand shown
# UniProt P61244, sequence (P61244 whole entry): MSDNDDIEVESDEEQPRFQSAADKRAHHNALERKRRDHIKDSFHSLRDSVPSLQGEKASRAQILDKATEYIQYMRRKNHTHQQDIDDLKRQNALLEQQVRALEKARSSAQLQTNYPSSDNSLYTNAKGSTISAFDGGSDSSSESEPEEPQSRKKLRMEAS
row,Sequence,binding signal (normalized occupancy)
1,AGCACACG,0.0942
2,ATTAGTTG,0.074
3,ACAACGTC,0.0706
4,AGCCATTA,0.0779
5,AGACAGAC,0.0754
6,ATTGGATA,0.076
7,ACGAATAG,0.0746
8,GAAGTGTC,0.0697
9,GAATCGGC,0.0684
10,CGACGTCC,0.0695
11,CCCATAAC,0.0784
12,AGTAGATC,0.0759
13,AAGGGCGG,0.0683
14,CTTGTGGA,0.0762
15,CGGCGCGA,0.0676
16,AAGCTATT,0.0752
17,CGCCGATC,0.0712
18,CATATAGA,0.0864
19,CGAAAAGC,0.0632
20,AGACAACC,0.0739
21,ACGTTCTG,0.0756
22,GCTCCGCC,0.064
23,AGTCGACG,0.0691
24,CGGCATGA,0.0962

row,Sequence,binding signal (normalized occupancy)
1,ACTCGGGA,0.0661
2,AAGCGGTC,0.0675
3,AGACCCTG,0.0694
4,CCGTTGTC,0.0735
5,ACGGGCTA,0.0742
6,ATGATGGC,0.0855
7,AAGTAAAT,0.0775
8,ATAGCATG,0.103
9,TCCCGAGA,0.0677
10,AGCGCCCG,0.0657
11,GACTCGGA,0.068
12,CGACCGAG,0.0707
13,CAAGCTAG,0.0691
14,ACTACGTG,0.0807
15,GACGCCAA,0.0691
16,GAATGATC,0.0757
17,ACATTTCT,0.078
18,CAACTAAC,0.0767
19,AAAACCCA,0.0746
20,AGCTACCC,0.0712
21,GGTGTAGA,0.0796
22,ATAGGTCG,0.0731
23,CACTTGGC,0.0731
24,AATTCAAA,0.0767

row,Sequence,binding signal (normalized occupancy)
1,CATGTAAC,0.0941
2,ACTCACGA,0.0776
3,GCCTGTCA,0.0734
4,CTTGACTC,0.0726
5,CGTCGTCA,0.0742
6,CTATATCA,0.0879
7,ACTGACTG,0.0723
8,CAGTGACG,0.0728
9,AACATGCC,0.089
10,ATCAACAT,0.0891
11,CAGTAGTC,0.0718
12,ACCGAACA,0.0747
13,GGTTGCAC,0.0731
14,CTCAGATC,0.0734
15,GCTGTTAA,0.077
16,AATAAAGC,0.0758
17,CGGCGAAC,0.0718
18,ACGGACAA,0.0773
19,CGCAACTC,0.0673
20,GCCTGTAC,0.0712
21,AAGTACCG,0.0718
22,CAGAACGC,0.07
23,CGGGTTTC,0.0787
24,ACCTACCA,0.0725

row,Sequence,binding signal (normalized occupancy)
1,ACAGGCCC,0.073
2,CAGCAGAC,0.0696
3,GTCGATAA,0.0777
4,GGTGCACA,0.078
5,GCGCCGCC,0.0666
6,ACGCCACG,0.0993
7,AAATGTGT,0.0811
8,ACTCCACG,0.087
9,CTAGTTTA,0.0713
10,GTTGATGA,0.0756
11,AGGAACAT,0.0776
12,GAAACTGA,0.0693
13,GCCTCAAC,0.071
14,CACTTAGA,0.0744
15,AGAGCGCT,0.0684
16,GCGCGCGA,0.075
17,CCCGATCG,0.0727
18,AGCGGCTC,0.0687
19,CACAACAG,0.0759
20,AGTCCAGA,0.0677
21,CTGTAAGA,0.0739
22,CCTATGGA,0.0763
